Measured values as given in paper PMC10411901, “FIRRM cooperates with FIGNL1 to promote RAD51 disassembly during DNA repair” (Science Advances, 2023).
No constants are given. Whether binding was seen depends on the method and setting. Some results given as binding are weak or reduced against the parent protein; the word gives no strength. Tags and fused reporters may be left off the sequences shown.

Assays:
Assay in all cases: LacO/LacR tethering assay (recruitment to a LacO array in cells); mCherry-LacRnls-bait transiently transfected and held at the LacO array of U2OS 2-6-5 cells; colocalization of the GFP-tagged prey at the mCherry locus quantified; FOK1 nuclease not expressed
[1] = molecular target: T1, mCherry-LacRnls-FIGNL1 (human) (UniProt Q6PIW4)
T1 sequence: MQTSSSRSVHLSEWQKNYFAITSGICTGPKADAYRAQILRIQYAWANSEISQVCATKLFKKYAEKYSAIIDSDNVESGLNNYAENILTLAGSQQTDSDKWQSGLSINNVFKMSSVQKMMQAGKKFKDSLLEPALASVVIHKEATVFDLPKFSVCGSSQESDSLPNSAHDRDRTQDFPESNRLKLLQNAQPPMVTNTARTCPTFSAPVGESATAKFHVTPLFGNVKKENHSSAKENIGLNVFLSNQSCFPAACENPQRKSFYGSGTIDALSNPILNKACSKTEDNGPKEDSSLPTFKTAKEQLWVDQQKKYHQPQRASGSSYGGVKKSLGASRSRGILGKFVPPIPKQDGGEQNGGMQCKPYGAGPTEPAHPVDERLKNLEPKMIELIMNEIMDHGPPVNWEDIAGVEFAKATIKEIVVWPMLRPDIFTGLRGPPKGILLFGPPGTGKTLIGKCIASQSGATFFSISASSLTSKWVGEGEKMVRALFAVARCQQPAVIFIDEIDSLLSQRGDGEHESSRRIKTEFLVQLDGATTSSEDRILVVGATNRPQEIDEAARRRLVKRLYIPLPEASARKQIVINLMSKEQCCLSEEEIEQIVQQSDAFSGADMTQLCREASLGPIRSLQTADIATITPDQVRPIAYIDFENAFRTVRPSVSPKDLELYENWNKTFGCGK

[2] = molecular target: T2, mCherry-LacRnls-FIGNL1 D500A (human) (UniProt Q6PIW4)
T2 sequence: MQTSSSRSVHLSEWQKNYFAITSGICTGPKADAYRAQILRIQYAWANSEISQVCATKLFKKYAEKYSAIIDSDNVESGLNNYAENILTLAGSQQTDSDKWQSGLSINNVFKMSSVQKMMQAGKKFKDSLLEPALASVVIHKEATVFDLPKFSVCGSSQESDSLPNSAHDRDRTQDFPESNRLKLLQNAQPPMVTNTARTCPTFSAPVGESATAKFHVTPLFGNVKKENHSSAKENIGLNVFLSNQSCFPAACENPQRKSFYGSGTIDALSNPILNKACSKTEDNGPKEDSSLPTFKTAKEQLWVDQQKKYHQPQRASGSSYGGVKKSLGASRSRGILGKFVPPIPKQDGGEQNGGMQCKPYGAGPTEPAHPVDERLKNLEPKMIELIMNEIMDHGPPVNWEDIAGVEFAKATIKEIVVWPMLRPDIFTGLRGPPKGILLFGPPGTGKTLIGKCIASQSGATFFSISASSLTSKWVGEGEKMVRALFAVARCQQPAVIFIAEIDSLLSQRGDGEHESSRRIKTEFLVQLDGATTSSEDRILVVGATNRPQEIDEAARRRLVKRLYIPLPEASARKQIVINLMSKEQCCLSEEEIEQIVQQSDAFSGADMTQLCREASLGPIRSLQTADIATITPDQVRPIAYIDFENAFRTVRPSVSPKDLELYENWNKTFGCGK

[3] = molecular target: T3, mCherry-LacRnls-FIGNL1 F295E (human) (UniProt Q6PIW4)
T3 sequence: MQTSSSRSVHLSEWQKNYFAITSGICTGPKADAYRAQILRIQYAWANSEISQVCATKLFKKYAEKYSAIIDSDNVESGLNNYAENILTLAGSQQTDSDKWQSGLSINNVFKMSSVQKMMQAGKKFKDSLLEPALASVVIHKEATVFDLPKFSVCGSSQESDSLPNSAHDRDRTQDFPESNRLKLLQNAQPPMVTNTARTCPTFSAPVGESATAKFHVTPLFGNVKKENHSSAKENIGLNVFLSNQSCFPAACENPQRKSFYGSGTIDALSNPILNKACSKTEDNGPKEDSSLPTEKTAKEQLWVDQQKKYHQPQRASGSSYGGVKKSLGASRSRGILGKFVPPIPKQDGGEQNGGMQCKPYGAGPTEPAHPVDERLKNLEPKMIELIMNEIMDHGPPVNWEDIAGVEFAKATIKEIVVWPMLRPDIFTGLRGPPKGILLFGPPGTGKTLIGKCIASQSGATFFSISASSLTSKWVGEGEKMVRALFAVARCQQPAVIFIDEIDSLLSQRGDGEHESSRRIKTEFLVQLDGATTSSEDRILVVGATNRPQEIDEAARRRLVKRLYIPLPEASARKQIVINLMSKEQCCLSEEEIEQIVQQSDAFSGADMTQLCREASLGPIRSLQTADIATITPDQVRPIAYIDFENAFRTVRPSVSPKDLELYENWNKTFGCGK

[4] = molecular target: T4, mCherry-LacRnls-FIGNL1 amino acids 1 to 360 (human) (UniProt Q6PIW4)
T4 sequence: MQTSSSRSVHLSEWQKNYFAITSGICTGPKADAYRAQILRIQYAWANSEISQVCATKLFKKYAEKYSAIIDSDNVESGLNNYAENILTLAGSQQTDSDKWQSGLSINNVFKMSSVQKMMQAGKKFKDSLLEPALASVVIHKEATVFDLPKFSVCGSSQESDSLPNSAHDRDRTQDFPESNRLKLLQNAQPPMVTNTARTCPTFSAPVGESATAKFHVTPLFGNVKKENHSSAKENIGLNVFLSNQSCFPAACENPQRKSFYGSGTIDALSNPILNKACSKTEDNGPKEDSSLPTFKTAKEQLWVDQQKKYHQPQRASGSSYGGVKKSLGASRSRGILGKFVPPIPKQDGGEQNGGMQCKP

Measured: binding

B1: GFP-FIRRM full length (protein, UniProt Q9NSG2 1-853)
chain: MFLPHMNHLTLEQTFFSQVLPKTVKLFDDMMYELTSQARGLSSQNLEIQTTLRNILQTMVQLLGALTGCVQHICATQESIILENIQSLPSSVLHIIKSTFVHCKNSESVYSGCLHLVSDLLQALFKEAYSLQKQLMELLDMVCMDPLVDDNDDILNMVIVIHSLLDICSVISSMDHAFHANTWKFIIKQSLKHQSIIKSQLKHKDIITSLCEDILFSFHSCLQLAEQMTQSDAQDNADYRLFQKTLKLCRFFANSLLHYAKEFLPFLSDSCCTLHQLYLQIHSKFPPSLYATRISKAHQEEIAGAFLVTLDPLISQLLTFQPFMQVVLDSKLDLPCELQFPQCLLLVVVMDKLPSQPKEVQTLWCTDSQVSETTTRISLLKAVFYSFEQCSGELSLPVHLQGLKSKGKAEVAVTLYQHVCVHLCTFITSFHPSLFAELDAALLNAVLSANMITSLLAMDAWCFLARYGTAELCAHHVTIVAHLIKSCPGECYQLINLSILLKRLFFFMAPPHQLEFIQKFSPKEAENLPLWQHISFQALPPELREQTVHEVTTVGTAECRKWLSRSRTLGELESLNTVLSALLAVCNSAGEALDTGKQTAIIEVVSQLWAFLNIKQVADQPYVQQTFSLLLPLLGFFIQTLDPKLILQAVTLQTSLLKLELPDYVRLAMLDFVSSLGKLFIPEAIQDRILPNLSCMFALLLADRSWLLEQHTLEAFTQFAEGTNHEEIVPQCLSSEETKNKVVSFLEKTGFVDETEAAKVERVKQEKGIFWEPFANVTVEEAKRSSLQPYAKRARQEFPWEEEYRSALHTIAGALEATESLLQKGPAPAWLSMEMEALQERMDKLKRYIHTLG
binds: [1] | [2] | [3] | [4]
